Results published in paper PMC4336329 (PLoS ONE, 2015).
In all, about 310,000 compounds went through this assay and about 14,000 (4.5%) showed an effect of 50% or more. Effects have a minus sign here. The list shows a part of the results.

What follows are molecules tested against human ether-à-go-go-related gene (hERG) potassium channel (human, UniProt Q12809) (assay: primary screen, population patch clamp on CHO cells stably expressing hERG).
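Note: peak tail current of the secondary pulse compared with the same well before compound.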

Sequence of human ether-à-go-go-related gene (hERG) potassium channel (Q12809 whole entry, looked up): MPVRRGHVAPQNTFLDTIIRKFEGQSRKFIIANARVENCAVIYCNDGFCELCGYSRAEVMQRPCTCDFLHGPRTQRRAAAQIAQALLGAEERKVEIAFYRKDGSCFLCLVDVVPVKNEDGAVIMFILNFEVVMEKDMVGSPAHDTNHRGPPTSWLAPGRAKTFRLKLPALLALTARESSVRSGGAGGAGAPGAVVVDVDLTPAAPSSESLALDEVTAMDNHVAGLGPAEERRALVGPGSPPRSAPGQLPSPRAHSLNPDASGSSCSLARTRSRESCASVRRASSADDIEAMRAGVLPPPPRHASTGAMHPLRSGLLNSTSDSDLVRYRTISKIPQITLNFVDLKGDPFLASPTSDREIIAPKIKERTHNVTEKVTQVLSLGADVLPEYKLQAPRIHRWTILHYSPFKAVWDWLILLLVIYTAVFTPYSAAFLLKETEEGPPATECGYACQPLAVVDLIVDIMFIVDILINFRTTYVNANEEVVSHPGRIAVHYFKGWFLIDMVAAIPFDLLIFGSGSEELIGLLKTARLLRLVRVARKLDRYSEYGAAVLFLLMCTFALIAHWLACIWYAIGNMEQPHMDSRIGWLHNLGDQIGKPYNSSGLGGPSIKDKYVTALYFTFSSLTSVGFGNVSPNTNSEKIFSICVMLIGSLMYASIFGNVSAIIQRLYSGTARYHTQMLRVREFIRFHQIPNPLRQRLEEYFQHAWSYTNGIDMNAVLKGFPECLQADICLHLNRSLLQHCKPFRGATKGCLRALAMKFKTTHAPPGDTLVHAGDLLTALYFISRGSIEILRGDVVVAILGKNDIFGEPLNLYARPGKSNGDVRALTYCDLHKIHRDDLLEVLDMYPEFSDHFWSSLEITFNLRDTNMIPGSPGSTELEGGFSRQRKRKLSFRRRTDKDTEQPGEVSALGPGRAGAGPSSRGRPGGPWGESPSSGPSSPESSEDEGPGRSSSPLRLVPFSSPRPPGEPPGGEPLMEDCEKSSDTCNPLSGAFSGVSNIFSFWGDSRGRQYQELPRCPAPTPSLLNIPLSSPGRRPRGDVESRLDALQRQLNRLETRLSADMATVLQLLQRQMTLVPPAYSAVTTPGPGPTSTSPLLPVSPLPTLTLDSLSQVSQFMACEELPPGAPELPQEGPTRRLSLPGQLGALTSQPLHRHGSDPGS

Row | Structure (SMILES) | hERG current change (%, negative = inhibition) at 10uM
1 | CC(C)COCC(O)CC(Cc1ccccc1)C(=O)NN (stereo not drawn) | 26.1%
2 | CC(C)[N+](C)(CCC(C(N)=O)(c1ccccc1)c1ccccc1)C(C)C.[I-] | 19.2%
3 | Cc1nnc(SCC(=O)NC23CC4CC(CC(C4)C2)C3)s1 | 22.2%
4 | Cc1ccc(NC(=O)C2CCCN(S(=O)(=O)c3cccnc3)C2)cc1C (stereo not drawn) | -6.36%
5 | c1ccc(Oc2nc(N3CCOCC3)nc(N3CCOCC3)n2)cc1 | -5.6%
6 | CCn1c(SCC(=O)Nc2nc3ccccc3s2)nnc1-c1ccc(OC)cc1 | -1.62%
7 | O=C(CSc1nnc(NC(=O)c2ccc(F)cc2F)s1)NC1CC1 | 12.1%
8 | COc1cc2c(C(=O)Nc3ccc4c(c3)OCO4)cn(CC(C)C)c(=O)c2cc1OC | -2.44%
9 | CCCOC(=O)c1c(NC(=O)CCCn2nc([N+](=O)[O-])c(Cl)c2C)sc(C(=O)OC)c1C | 6.92%
10 | CC(C)C[C@H](NC(=O)c1nc[nH]c1C(=O)N1CC[NH2+]CC1)C(=O)OC(C)(C)C.[Cl-] | -13%
11 | CCOc1cccc(/C=C/c2ccc3cccc(O)c3n2)c1OC | 25.2%
12 | COc1ccccc1C1C(C(=O)c2ccco2)=C(O)C(=O)N1c1cc(C)on1 (stereo not drawn) | -12.8%
13 | O=C(Nc1nc2ccc(S(=O)(=O)N3CCOCC3)cc2s1)c1cccs1 | 1.56%
14 | COc1ccc(/C=C(/NC(=O)c2ccccc2)C(=O)N/N=C/c2sccc2C)cc1 | -21.6%
15 | Cc1cc(C)nc(N2CCCC(C(=O)Nc3nc4ccc(S(C)(=O)=O)cc4s3)C2)n1 (stereo not drawn) | -25.7%
16 | O=S(=O)(N1CCCCC1)N1CCN(CC(O)COc2ccc3cc(Br)ccc3c2)CC1 (stereo not drawn) | 7.33%
17 | O=C(NCc1ccc(F)cc1)c1ccc(CNc2c(N3CCOCC3)c(=O)c2=O)cc1 | 17.7%
18 | NC(=O)NC(=O)CC1S/C(=N/N=C2\CSC(=O)N2)NC1=O (stereo not drawn) | 15.9%
19 | Cn1cccc1/C=N/NC(=O)c1cccnc1 | 13.6%
20 | OCCNC(=S)Nc1ccc2c(c1)OCCO2 | 9.32%
21 | O=C(Nc1nnc(SCc2ccccc2Cl)s1)C1COc2ccccc2O1 (stereo not drawn) | 19.7%
22 | Brc1ccc2c(c1)C(c1ccc(N3CCOCC3)cc1)=NNC(c1cccs1)=N2 | 4.37%

Row | Structure (SMILES) | hERG current change (%, negative = inhibition) at 10uM
23 | Cc1ccc(CN2CCN(CC(=O)N3CCC(C(N)=O)CC3)C2=O)cc1 | 5.43%
24 | COc1cccc(/C=C/C(=O)OCC(=O)Nc2ccc(Cl)cn2)c1 | 28.1%
25 | O=C(NCCc1ccc(Cl)cc1)c1ccc(=O)[nH]c1 | 3.03%
26 | CC(C)=NOc1nc(N(C)C)nc(N2CCOCC2)n1 | 2.14%
27 | COc1nc(NC(C)(C)C)nc(Oc2ccc(=O)n(-c3ccccc3)n2)n1 | -15.1%
28 | CCOC(=O)C1(Cc2cccc(Cl)c2)CCCN(C(=O)c2cc(C(C)C)nn2C)C1 (stereo not drawn) | -13.1%
29 | O=C(N/N=C/c1ccc[nH]1)c1cc(-c2ccc(Cl)cc2)nc2ccccc12 | -8.9%
30 | Cc1cccc(C)c1Nc1nnc(SC(C)C(=O)Nc2c(C)n(C)n(-c3ccccc3)c2=O)s1 (stereo not drawn) | -9.32%
31 | COc1ccc(/C=N/NC(=O)c2cccc(OC(F)(F)C(F)F)c2)cc1O | -8.23%
32 | O=c1[nH]ncc(N/N=C/c2ccccc2)c1Cl | -5.82%
33 | C/C=C/c1ccc(OCC(=O)N2CCc3cc(OC)c(OC)cc3C2)c(OC)c1 | -12.4%
34 | CN(C(=O)C1CCC(=O)N(C2CC2)C1)C1CCCCC1 (stereo not drawn) | 6.92%
35 | O=C(O)C[C@H]1c2ccccc2S(=O)(=O)N1C1CCCCC1 | 18.7%
36 | COC(=O)C1=C(C)C(c2ccc(OC)cc2)NC(=S)N1 (stereo not drawn) | -0.668%
37 | O=S(=O)(NCc1cccnc1)c1cccc2cccnc12 | 6.44%
38 | CN(C(=O)/C=C/c1ccccc1)C1CCS(=O)(=O)C1 (stereo not drawn) | -0.518%
39 | CCC1CCCCN1c1ccc([N+](=O)[O-])cc1/C=N/NC(=O)Cn1c2ccccc2c(=O)c2ccccc21 (stereo not drawn) | 0.558%
40 | O=C(Nc1cc(S(=O)(=O)N2CCOCC2)ccc1N1CCCC1)c1cccnc1Cl | 24.2%
41 | CCCc1ncc(C(O)c2ccc(OC)cc2)n1C (stereo not drawn) | -12.6%
42 | CC1=C(/C=C/C(C)=N\NC(=O)c2ccncc2)C(C)(C)CCC1 | -28.6%
43 | Cn1nnnc1SCc1cc(=O)[nH]c2ccccc12 | 2.31%
44 | C=CCOc1ccccc1CN1CCC(C(=O)Nc2cccc(-c3ccn[nH]3)c2)CC1 | -33.9%

Row | Structure (SMILES) | hERG current change (%, negative = inhibition) at 10uM
45 | COC(=O)C(O)(CC(=O)Nc1ccc(C)c(F)c1)C(F)(F)F (stereo not drawn) | 18.3%
46 | Cc1cc(F)ccc1NC(=O)C1CCN(S(=O)(=O)c2ccc3c(c2)CCCC(=O)N3)CC1 | 13.1%
47 | O=C(CSc1nnc(-c2ccccc2)n1CC1CCCO1)N1CCCC1 (stereo not drawn) | 17.8%
48 | CN(CC(=O)Nc1ccccc1Cl)C(=O)COC(=O)Cc1ccc(F)cc1 | 1.33%
49 | CC(C)C(C(=O)NCC1CCCO1)N(C(=O)CNS(=O)(=O)c1ccc(F)cc1)C1CCCCC1 (stereo not drawn) | -15%
50 | Cc1ccc(S(=O)(=O)NCC(=O)OCCOc2cccc(Cl)c2)cc1 | 8.36%
51 | CCOC(=O)c1c(C)c(C(=O)NCc2ccc(OC)cc2)c(C)n1C | 6.13%
52 | COC(=O)c1c(C)[nH]c(C(=O)/C=C/c2ccc(Cl)cc2)c1C | 3.64%
53 | COc1ccccc1NC(=O)COc1cccc2c1CCNC2=O | -12.9%
54 | O=C(Nc1ccc(Oc2ccccc2)nc1)C1CCCCN1Cc1cccc(O)c1 (stereo not drawn) | -8.21%
55 | Cc1cc(NC(=O)CCC(=O)N(CC(=O)NCC2CCCO2)c2cccc(F)c2)no1 (stereo not drawn) | 5.37%
56 | O=C(NNC(=O)C12CC3CC(CC(C3)C1)C2)[C@@H]1C[C@H]1c1ccccc1 | 1.54%
57 | Cc1nn(C(C)C(=O)NCCN2CCCCCC2)c(=O)c2nn(-c3ccccc3)c(C)c12 (stereo not drawn) | 21.6%
58 | C=CCc1ccccc1OCC(O)CN1CCOCC1 (stereo not drawn) | 13.1%
59 | CC(=O)Nc1cccc2c1C(=O)N(c1ccccc1OC(C)=O)C2=O | 28.5%
60 | O=C(CCc1ccncc1)N1CCCC(Nc2ccc(F)cc2)C1 (stereo not drawn) | -13.9%
61 | Cc1ccc(-c2cc(-c3cccs3)[nH]n2)c(O)c1 | 1.75%
62 | O=C(CCNS(=O)(=O)c1ccc(Br)s1)Nc1ccc(Cl)cc1 | 1.68%
63 | C=CCN1C(=O)/C(=C/c2ccccc2)S/C1=N/c1nccs1 | -2.21%
64 | COc1cccc(NC(=O)CN(C)C(=O)c2c(C)nn(CC(C)C)c2Cl)c1 | 3.65%
65 | O=C(C1=C[C@H](c2ccc(Br)cc2)C[C@H](OCc2ccc(CO)cc2)O1)N1CCOCC1 | -45.1%
66 | COc1ccc(OCCSc2nnc(C(C)NC(=O)c3ccccc3F)n2C)cc1 (stereo not drawn) | 1.3%

Row | Structure (SMILES) | hERG current change (%, negative = inhibition) at 10uM
67 | O=C(Nc1ccccc1NC(=O)c1ccco1)c1ccccc1 | 4.99%
68 | Cc1cc(C)nc(SCc2ccc([N+](=O)[O-])cc2)n1 | -17%
69 | CC12CCC(C(=O)NCc3ccc4c(c3)OCO4)(C(=O)C1=O)C2(C)C (stereo not drawn) | -6.03%
70 | O=C(Cn1nnc2ccccc21)c1ccc(Cl)cc1 | -4.9%
71 | Cc1c(NS(=O)(=O)c2ccc3c(c2)Cc2ccccc2-3)c(=O)n(-c2ccccc2)n1C | 14.6%
72 | CC(C)(C)C(=O)Nc1ccc(C(=O)NNC(=O)c2ccccc2)cc1 | 15.4%
73 | Cc1cccc(C(=O)OCC(=O)Nc2sc3c(c2C#N)CCC3)c1 | 16.4%
74 | COc1nc(-c2ccccc2)nc(C)c1CC(=O)O | 4.66%
75 | O=C(NCc1ccccn1)c1ccc(Cl)c(S(=O)(=O)NCc2ccccc2)c1 | -22.8%
76 | O=C(CCCN1C(=O)/C(=C/c2cccc(Br)c2)SC1=S)N1CCOCC1 | 9.86%
77 | CC1(C)CC(=O)C2=C(C1)N(CCN1CCOCC1)C1=C(C(=O)CC(C)(C)C1)C2c1cccc(F)c1 | -33.5%
78 | O=S1(=O)N=C(c2ccccc2)c2ccccc21 | 9.74%
79 | Cc1csc(NC(=O)c2cc(C)oc2C)n1 | -0.00252%
80 | Cc1ccnc(SCc2cc(=O)c(OC(=O)c3cc([N+](=O)[O-])ccc3Cl)co2)n1 | -5.61%
81 | O=C(Nc1sc2c(c1C(=O)O)CCCCC2)c1ccco1 | 4.36%
82 | Cc1nn(C)c(C(=O)NNC(=S)Nc2ccc(F)cc2)c1[N+](=O)[O-] | 9.16%
83 | O=C(O)c1cccc(C(=O)Cc2ccccc2)c1 | 18.7%
84 | COc1ccc(CNC(=O)CN=C2NC(=O)C(c3ccccc3)(c3ccccc3)N2)cc1 | 8.59%
85 | Cc1cc2c(cc1S(=O)(=O)N1CCN(c3ccccc3F)CC1)OCC(=O)N2 | 21.5%
86 | O=c1cc(CNc2ccc(Br)cc2)nc2sccn12 | -30.2%
87 | O=S(=O)(c1ccc(Cl)c(NC(=S)Nc2cccc(O)c2)c1)N1CCOCC1 | -1.85%
